# The supplement of paper PMC3334620
# The full ranking holds about 33,000 sequences; the median of “E-score (-0.5 to 0.5)” is about -0.012, and the highest 2% start at about 0.29. The list shows a part of the results.
# Target: T1, Ybr033w (UniProt P38073)
# T1 sequence: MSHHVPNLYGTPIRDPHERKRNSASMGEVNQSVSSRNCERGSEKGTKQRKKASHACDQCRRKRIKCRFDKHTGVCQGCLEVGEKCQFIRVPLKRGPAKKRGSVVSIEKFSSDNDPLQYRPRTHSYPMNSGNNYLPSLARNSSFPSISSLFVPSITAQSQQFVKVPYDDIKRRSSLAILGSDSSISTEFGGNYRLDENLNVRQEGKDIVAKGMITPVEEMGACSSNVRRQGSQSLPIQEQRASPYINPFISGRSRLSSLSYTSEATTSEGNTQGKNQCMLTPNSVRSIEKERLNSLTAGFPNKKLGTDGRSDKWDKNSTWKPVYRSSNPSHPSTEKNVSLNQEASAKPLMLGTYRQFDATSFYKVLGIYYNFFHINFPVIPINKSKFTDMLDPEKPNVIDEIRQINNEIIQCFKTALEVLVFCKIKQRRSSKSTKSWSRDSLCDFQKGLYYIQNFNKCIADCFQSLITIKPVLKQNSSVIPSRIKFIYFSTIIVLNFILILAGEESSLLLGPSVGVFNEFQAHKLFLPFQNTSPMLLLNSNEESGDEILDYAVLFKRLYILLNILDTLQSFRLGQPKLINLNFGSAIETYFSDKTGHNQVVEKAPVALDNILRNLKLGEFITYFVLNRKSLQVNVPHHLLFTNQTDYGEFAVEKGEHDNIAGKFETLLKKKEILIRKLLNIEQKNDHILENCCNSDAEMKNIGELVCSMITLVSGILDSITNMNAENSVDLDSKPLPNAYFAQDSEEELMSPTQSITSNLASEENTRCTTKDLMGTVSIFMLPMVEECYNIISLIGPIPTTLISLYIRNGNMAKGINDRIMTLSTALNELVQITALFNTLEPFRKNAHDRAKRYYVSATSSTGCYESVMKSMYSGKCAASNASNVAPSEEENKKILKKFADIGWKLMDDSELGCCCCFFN
# Test: PBM E-score (8-mer binding enrichment) (E-score (-0.5 to 0.5)); higher = stronger / more preferred TF binding; most listed sequences are background and not binding sites
# Conditions: protein concentration: 200 nM; construct: GST-full length
# Procedure: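 Universal 'all 10-mer' protein binding microarrays (Agilent AMADID 015681) probed with GST-tagged S. cerevisiae TFs (full-length or DBD) made by in vitro transcription/translation (PURExpress), about 100-200 nM. Bound TF was detected with fluorescent anti-GST. Each ungapped 8-mer (which stands for itself and its reverse complement) is scored by the PBM enrichment score (E-score), a modified Wilcoxon-Mann-Whitney statistic from -0.5 to +0.5, computed with the Universal PBM Analysis Suite. Scale: above 0.35 generally sequence-specific binding.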
row,Sequence,PBM E-score
1,AGGAAACA,0.172
2,ACCAACGC,-0.264
3,AGGATAAA,0.427
4,AATTCGCG,0.0683
5,ATTGTTAG,0.0815
6,GTATTCTA,0.207
7,CTGATGGC,-0.163
8,TAGCTCGA,0.0406
9,AATTTGTA,0.206
10,CCTTCTGC,-0.175
11,GACGACCA,-0.124
12,AATCAGCA,0.17
13,ACAACATA,0.0981
14,CTCTAAGA,0.0486
15,GACTCAAA,0.00131
16,CCTGCCCC,-0.282
17,CCACTTAG,-0.154
18,AACGCTCA,-0.0631
19,CTATTATC,0.21
20,CAAACACC,0.0219
21,ATTCCGGC,0.0756
22,CAATCTGC,-0.19
23,GATGAGTA,0.206
24,CAGCGTCC,-0.145
25,GAATCTTA,0.196

row,Sequence,PBM E-score
1,ATAAGTGC,-0.0719
2,CAAAACCA,0.245
3,GTCTCAAA,-0.144
4,AAAACCTG,-0.00791
5,GATTCACA,0.0232
6,GTAGGGAA,0.118
7,GTGGCTGA,-0.183
8,ACAGCTTC,-0.0252
9,GTCTTACA,-0.0881
10,CAGTTTAG,-0.119
11,CGGGATGA,-0.105
12,CAAACCTC,-0.143
13,CGTCCTGA,-0.175
14,CCCTCGTC,-0.185
15,CTCAAAAC,0.217
16,ATAGCTAA,-0.15
17,ATGGCTAA,0.0256
18,AAACGCGG,0.0652
19,GTTCACGA,0.00909
20,GGATGTAC,0.0229
21,AAGATTCT,0.0852
22,CAGTTCTA,-0.0312
23,CTCTACAG,0.00706
24,ATTAAGCC,0.0562
25,CTCTGAAA,-0.057

row,Sequence,PBM E-score
1,AGCGACCA,0.00765
2,ACTAGGAA,0.067
3,ATCTCCCG,-0.206
4,CGTTAGTC,0.043
5,AATTAGGT,0.249
6,CGGACGTA,-0.151
7,GCAAATGC,-0.183
8,ATCGAATC,0.0745
9,CCGCCGAC,-0.17
10,AATTATGC,0.21
11,GCCTCAGC,-0.194
12,CCGCCCGG,-0.168
13,GAGCAGTA,0.108
14,CATCTATA,0.188
15,AATGATCA,0.0742
16,GCATTCGC,-0.0981
17,TGAGTCAA,0.0985
18,AGCCAGCA,-0.0216
19,CTCGTGTC,-0.153
20,CTACTTTA,0.0924
21,AACGGTAC,0.215
22,GCGAAAGA,-0.108
23,AGCGAAAT,0.0244
24,GAATACAA,0.196
25,CGTTGCGC,-0.0731

row,Sequence,PBM E-score
1,GACAAAAA,0.261
2,CGAAGGTC,-0.183
3,ATCGGGGG,-0.37
4,ATTGGCTC,0.038
5,ACGCCCTC,-0.122
6,ATCTATGG,-0.223
7,AATGGGTG,0.0974
8,GGGGAGTA,-0.101
9,ATACTTGG,0.0407
10,ACGAGACA,0.0368
11,AAAGGCCG,-0.0673
12,GTGTCAAA,0.118
13,ATTCACTC,0.104
14,AAAACCAA,0.0921
15,CCTACGTC,-0.0878
16,ATGAATTA,0.263
17,CATTAACC,0.136
18,ATCAGTCG,0.122
19,ACTGTTCT,0.114
20,CATTCCCG,-0.0262
21,CAGTACAA,-0.0931
22,AAAAGCTT,-0.0171
23,ACATGTCC,0.0496
24,AATCTCAC,0.0647
25,GTACGGGA,-0.0923

row,Sequence,PBM E-score
1,ATTTCAAG,0.187
2,GGCAGTAC,-0.188
3,CCATTGGG,-0.225
4,GCGCATCC,-0.0235
5,GTATACAA,0.203
6,GCCGGTAC,-0.201
7,AAGAGAGA,0.00326
8,CATCCTCA,-0.0905
9,AATTCCAG,0.0825
10,AATTTAAG,0.211
11,CAGTGATA,0.0511
12,CGCTGGGA,-0.213
13,AAATATCG,0.247
14,TCTGTAAA,0.0762
15,ACCAAGGT,-0.034
16,ACCATCCT,0.043
17,CACCCCAC,-0.0862
18,AGTGTTGG,-0.0403
19,TAGGAAGA,0.152
20,CGAGTACG,-0.0987
21,CAACTACG,0.214
22,GAGGCGCC,-0.209
23,CGTTGTTA,0.0537
24,TATGCGGA,0.0987
25,ACGGATTC,0.114

row,Sequence,PBM E-score
1,CGCACGCA,-0.0877
2,AGCTCGGA,-0.249
3,GTATTTCA,0.235
4,CAGGGACA,-0.0495
5,GCTGGCCA,-0.183
6,ACAGACAA,0.259
7,CCTACTTA,0.0574
8,AAGTCTCT,0.0317
9,AGACGGGC,-0.141
10,CAATGTGA,0.218
11,GAGCTCAC,-0.27
12,ATCTACAG,0.128
13,ATCGGTAA,0.171
14,AGGCACAG,-0.0663
15,AGCCTTGA,-0.0767
16,CTAGGGTC,-0.177
17,CACGGGCG,-0.157
18,AGTTGCTA,0.253
19,CAGACACA,-0.0429
20,CGAGGCAA,-0.0952
21,CGAATAAA,0.145
22,TCACTCGA,0.0276
23,AATCAGCT,0.185
24,CAAACCCC,-0.2
25,CGTGACGC,-0.0223

row,Sequence,PBM E-score
1,AACAGCGT,0.042
2,TGCTAGAA,0.0898
3,CTGAGGCC,-0.24
4,GTCTCCTA,-0.236
5,GATAATGC,0.115
6,ATTAACTG,0.333
7,GATCGGAA,0.0275
8,GAATAAGC,0.189
9,ACAAAGAA,0.185
10,GTGGGTCA,-0.155
11,AAGGCATA,0.0942
12,AAGGCAGT,-0.0187
13,AAGCCGTA,0.125
14,AGACCGAA,0.0566
15,GAATAGAA,0.278
16,CTGCTAAG,-0.132
17,GATATCGC,0.119
18,ACGCATGG,-0.123
19,ACGTACGG,-0.153
20,CGAGGGCA,-0.0861
21,GCACACGA,-0.124
22,ATCGCTAA,0.0959
